# According to publication PMC5515408:
# Some of the results follow. At the low end of the ranking the order means little.
# Test system: MYC (p64) + MAX (p21), in MYC:MAX
# Test: protein-binding microarray (anti-MAX antibody)
# Details: PBM: 15 mM Tris-HCl pH 7.5, 100 mM KCl, 0.075% NP40, 7.5 mM beta-mercaptoethanol, 375 ng/ul BSA, 8 ng/ul poly(dA-dT):(dA-dT), 550 ng complex, 60 min, room …; high values mean tight binding; double strand, one strand shown; sequences stand for … in CCGGC…TTAATAGCTAAGATTACTATATCGACG
row,Sequence,binding signal (log2 normalized fluorescence)
1,TGACAGTACGTA,0.0905
2,TGACTCGGTGTA,0.179
3,TGAATTTTAGTA,-0.196
4,TGAGCAAACGTA,0.0471
5,TGATTTGAAGTA,-0.247
6,TGATAAGAAGTA,-0.136
7,TGATCTCATGTA,0.213
8,TGATGTTGCGTA,0.214
9,TGACCGATGGTA,0.22
10,TGAGATCAAGTA,-0.0172
11,TGAACATGGGTA,0.288
12,TGAGGACAGGTA,0.0882
13,TGAAGGATGGTA,0.0538
14,TGATAGCCTGTA,0.12
15,TGACAGGTGGTT,0.522
16,TGATATCAAGTA,0.0285
17,AGACACTTTGTA,0.3
18,TGACCCATGGTT,0.348
19,TGAAGCGCAGTA,0.0487
20,TGATCTGACGTA,-0.0108
21,TGACTAGAGGTA,-0.127
22,TGAGTTTCAGTA,-0.187
23,TGATTGAAGGTA,-0.0128
24,TGTCGCGTGGTA,0.536
25,TGACGGAAGGTA,-0.0359

row,Sequence,binding signal (log2 normalized fluorescence)
1,TGAGCAGTTGTA,0.0736
2,TGAAATACCGTA,0.102
3,CGTTAACACTTT,0.109
4,TGAGGTTGCGTA,-0.062
5,TGACACGTGTTT,0.847
6,TGACGAAACGTA,0.121
7,TGATTAGTCGTA,-0.281
8,TGAATGTGTGTA,0.421
9,TGAGCACTGGTA,0.187
10,TGAATAGAAGTA,-0.13
11,CTCATCGCGCCT,0.316
12,TGACGTGTAGTA,0.403
13,TGACTCGTGCTA,0.482
14,TGACTTGCCGTA,0.106
15,TGATGGTCCGTA,0.278
16,TGAGCTTCTGTA,-0.176
17,TGACGCGTGCCA,0.319
18,TGAGTAACCGTA,-0.107
19,TGATGAATCGTA,-0.0912
20,TCATAAGTGGTA,0.113
21,TGATGCTGGGTA,-0.102
22,TGAACGATTGTA,0.118
23,TGATCTGATGTA,0.061
24,TGACGGTAGGTA,-0.0969
25,TGAGGGAACGTA,0.0294

row,Sequence,binding signal (log2 normalized fluorescence)
1,TGACTGCGGGTA,0.112
2,TGAAAGTACGTA,0.0813
3,TGAGCTTGTGTA,0.187
4,TGTGTCGTGGTA,0.298
5,TGAACCAGTGTA,0.036
6,TGAAACCCAGTA,-0.0164
7,TGAACCGAGGTA,0.0574
8,TGAAACAAGGTA,0.229
9,GGGCACGTGGTA,0.738
10,TGAATTACTGTA,0.0701
11,TCGTCCCCTGAC,0.0104
12,TGACACCTCGTA,0.182
13,ACGCACGTGGTA,0.838
14,TGAGCGTGTGTA,0.287
15,TGACATGAGGTA,0.569
16,TTACGCGTGGTA,0.548
17,TGACAAGTGGTA,0.254
18,TGATTCAGTGTA,-0.141
19,TGAGTTGATGTA,-0.0944
20,TGAGGGCGGGTA,0.31
21,TGATAGGGGGTA,0.592
22,TGATCTTATGTA,0.0708
23,TGACTCACAGTA,0.217
24,TGAGCGAGTGTA,0.103
25,TGACCGCTCGTA,0.0552
